# Results published in the supplement of paper PMC4604168 (melanoma cell lines).
# The other results are listed elsewhere or left out. Repeats are few or missing, and single values can be far off.
# How the values were obtained:
# Assay in all cases: cell count relative to DMSO control; melanoma cells; higher = more viable cells
# Conditions in all cases: library dose: low library concentration; 72 h
# WM115 = tested on: WM115
# WM1716 = tested on: WM1716
# WM1745 = tested on: WM1745
# WM3526 = tested on: WM3526
# WM3619 = tested on: WM3619
# WM451Lu = tested on: WM451Lu
# 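Further: cell number obtained by counting DAPI-stained nuclei in high-throughput microscope images with image analysis software, screen run in 1,536-well plates.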
Compound,cell count (WM115) [%],cell count (WM1716) [%],cell count (WM1745) [%],cell count (WM3526) [%],cell count (WM3619) [%],cell count (WM451Lu) [%]
"C[C@@H](Oc1cc(-c2cnn(C3CCNCC3)c2)cnc1N)c1c(Cl)ccc(F)c1Cl [Crizotinib] + c1cc(-c2cnn3cc(-c4ccc(OCCN5CCCCC5)cc4)cnc23)ccn1 [Dorsomorphin] (first compound 0.2 µM, partner dose 0.4 µM)",90.2,108,70.5,84.7,109,93.9
"CS(=O)(=O)CCNCc1ccc(-c2ccc3ncnc(Nc4ccc(OCc5cccc(F)c5)c(Cl)c4)c3c2)o1 [lapatinib] + CC1(C)NC(=O)N(c2ccc([N+](=O)[O-])c(C(F)(F)F)c2)C1=O [nilutamide] (first compound 0.8 µM, partner dose 1 µM)",107,113,94.5,91,104,104
"CS(=O)(=O)CCNCc1ccc(-c2ccc3ncnc(Nc4ccc(OCc5cccc(F)c5)c(Cl)c4)c3c2)o1 [lapatinib] + OCCn1cc(-c2cnc3nnn(Cc4ccc5ncccc5c4)c3n2)cn1 [PF04217903] (first compound 0.8 µM, partner dose 1 µM)",104,102,81,89.3,113,103
"CN1CCN(c2ccc3nc(-c4c(N)c5c(F)cccc5[nH]c4=O)[nH]c3c2)CC1 [Dovitinib] + CO[C@@H]1[C@H](N(C)C(=O)c2ccccc2)C[C@H]2O[C@]1(C)n1c3ccccc3c3c4c(c5c6ccccc6n2c5c31)C(=O)NC4 [Midostaurin] (first compound 0.1 µM, partner dose 0.08 µM)",89.3,98.1,86.2,93.8,118,89.3
"CS(=O)(=O)CCNCc1ccc(-c2ccc3ncnc(Nc4ccc(OCc5cccc(F)c5)c(Cl)c4)c3c2)o1 [lapatinib] + OCc1c[nH]c2ccccc12 [Indole-3-carbinol] (first compound 0.8 µM, partner dose 0.8 µM)",85.8,88.3,100,90.9,83.8,87.6
"CNC(=O)c1cc(Oc2ccc(NC(=O)Nc3ccc(Cl)c(C(F)(F)F)c3)cc2)ccn1 [sorafenib] + Cn1cncc1[C@@](N)(c1ccc(Cl)cc1)c1ccc2c(c1)c(-c1cccc(Cl)c1)cc(=O)n2C [tipifarnib] (first compound 0.4 µM, partner dose 0.01 µM)",92.7,88.5,90,86.7,113,84.9
"CNC(=O)c1cc(Oc2ccc(NC(=O)Nc3ccc(Cl)c(C(F)(F)F)c3)cc2)ccn1 [sorafenib] + CC(C)CCN1c2nc(Nc3cc(F)c(O)c(F)c3)ncc2N(C)C(=O)C1C [BID1870] (first compound 0.4 µM, partner dose 0.2 µM)",89.3,108,93.4,87,103,117
"CN1CCN(c2ccc3nc(-c4c(N)c5c(F)cccc5[nH]c4=O)[nH]c3c2)CC1 [Dovitinib] + N#Cc1c(O)c2c(-c3ccc(-c4ccccc4O)cc3)csc2[nH]c1=O [A769662] (first compound 0.1 µM, partner dose 2 µM)",86.8,97.9,90.4,83.1,83,94.3
"CS(=O)(=O)CCNCc1ccc(-c2ccc3ncnc(Nc4ccc(OCc5cccc(F)c5)c(Cl)c4)c3c2)o1 [lapatinib] + C=CCn1c(=O)c2cnc(Nc3ccc(N4CCN(C)CC4)cc3)nc2n1-c1cccc(C(C)(C)O)n1 [MK1775] (first compound 0.8 µM, partner dose 0.02 µM)",88.9,84,89.1,103,79.9,117
"C[C@@H](Oc1cc(-c2cnn(C3CCNCC3)c2)cnc1N)c1c(Cl)ccc(F)c1Cl [Crizotinib] + COc1ccc(Cl)c(Nc2nc3ccccc3nc2NS(=O)(=O)c2cccc(NC(=O)C(C)(C)N)c2)c1 [XL147] (first compound 0.2 µM, partner dose 0.8 µM)",110,109,98.8,81.4,111,94.6
"CN1CCN(c2ccc3nc(-c4c(N)c5c(F)cccc5[nH]c4=O)[nH]c3c2)CC1 [Dovitinib] + C=C(c1ccc(C(=O)O)cc1)c1cc2c(cc1C)C(C)(C)CCC2(C)C [Bexarotene] (first compound 0.1 µM, partner dose 2 µM)",82.9,107,77.8,60.1,85.8,61.7
"C[C@@H](Oc1cc(-c2cnn(C3CCNCC3)c2)cnc1N)c1c(Cl)ccc(F)c1Cl [Crizotinib] + CCc1ccc(CCOc2ccc(CC3SC(=O)NC3=O)cc2)nc1 [pioglitazone] (first compound 0.2 µM, partner dose 2 µM)",119,103,101,96.6,108,65.6
"C[C@@H](Oc1cc(-c2cnn(C3CCNCC3)c2)cnc1N)c1c(Cl)ccc(F)c1Cl [Crizotinib] + CC1(C)NC(=O)N(c2ccc([N+](=O)[O-])c(C(F)(F)F)c2)C1=O [nilutamide] (first compound 0.2 µM, partner dose 1 µM)",85.5,96.1,108,88.2,94.2,91.6
"C=CCNC1=C2C[C@@H](C)C[C@H](OC)[C@H](O)[C@@H](C)/C=C(\C)[C@H](OC(N)=O)[C@@H](OC)/C=C\C=C(/C)C(=O)NC(=CC1=O)C2=O [Tanespimycin] + O=C(O)C(=O)Nc1sc2c(c1C(=O)O)CCNC2 [TCS401] (first compound 0.002 µM, partner dose 1.66667 µM)",98.4,109,85.3,88.2,117,65.6
"C[C@@H](Oc1cc(-c2cnn(C3CCNCC3)c2)cnc1N)c1c(Cl)ccc(F)c1Cl [Crizotinib] + C=C(c1ccc(C(=O)O)cc1)c1cc2c(cc1C)C(C)(C)CCC2(C)C [Bexarotene] (first compound 0.2 µM, partner dose 2 µM)",81.4,80.4,96.1,82.2,128,84
"CN1CCN(c2ccc3nc(-c4c(N)c5c(F)cccc5[nH]c4=O)[nH]c3c2)CC1 [Dovitinib] + Cc1nc(Nc2ncc(C(=O)Nc3c(C)cccc3Cl)s2)cc(N2CCN(CCO)CC2)n1 [dasatanib] (first compound 0.1 µM, partner dose 0.004 µM)",88.6,91.4,68.9,83.2,114,68
"CS(=O)(=O)CCNCc1ccc(-c2ccc3ncnc(Nc4ccc(OCc5cccc(F)c5)c(Cl)c4)c3c2)o1 [lapatinib] + Cc1nc(Nc2ncc(C(=O)Nc3c(C)cccc3Cl)s2)cc(N2CCN(CCO)CC2)n1 [dasatanib] (first compound 0.8 µM, partner dose 0.004 µM)",80,101,67.2,106,81.2,85.6
"C[C@@H](Oc1cc(-c2cnn(C3CCNCC3)c2)cnc1N)c1c(Cl)ccc(F)c1Cl [Crizotinib] + Clc1ccc(Nc2nnc(Cc3ccncc3)c3ccccc23)cc1 [vatalanib] (first compound 0.2 µM, partner dose 2 µM)",85.3,102,87.7,112,83.8,81.6
"C=CCNC1=C2C[C@@H](C)C[C@H](OC)[C@H](O)[C@@H](C)/C=C(\C)[C@H](OC(N)=O)[C@@H](OC)/C=C\C=C(/C)C(=O)NC(=CC1=O)C2=O [Tanespimycin] + COc1ccc(-c2ccc3c(N4CCOCC4)nc(N4C[C@@H](C)O[C@@H](C)C4)nc3n2)cc1CO [KU0063794] (first compound 0.002 µM, partner dose 0.02 µM)",90,104,98,92,88.1,76
"CN1CCN(c2ccc3nc(-c4c(N)c5c(F)cccc5[nH]c4=O)[nH]c3c2)CC1 [Dovitinib] + Oc1cc(-c2nc(-c3ccccc3)[nH]c2-c2ccncc2)ccc1Cl [L779450] (first compound 0.1 µM, partner dose 0.2 µM)",82.9,107,87.1,81.2,93.7,100
"C=CCNC1=C2C[C@@H](C)C[C@H](OC)[C@H](O)[C@@H](C)/C=C(\C)[C@H](OC(N)=O)[C@@H](OC)/C=C\C=C(/C)C(=O)NC(=CC1=O)C2=O [Tanespimycin] + O=S(=O)(c1ccccc1)N(CC(F)(F)F)c1ccc(C(O)(C(F)(F)F)C(F)(F)F)cc1 [T0901317] (first compound 0.002 µM, partner dose 1.4 µM)",76.3,96.4,74.3,87.4,104,91
"CNC(=O)c1cc(Oc2ccc(NC(=O)Nc3ccc(Cl)c(C(F)(F)F)c3)cc2)ccn1 [sorafenib] + O=C(O)c1ccc2c(c1)nc(Nc1cccc(Cl)c1)c1ccncc12 [CX4945] (first compound 0.4 µM, partner dose 0.4 µM)",97.2,90.9,89.8,91.8,110,101
"CN1CCN(c2ccc3nc(-c4c(N)c5c(F)cccc5[nH]c4=O)[nH]c3c2)CC1 [Dovitinib] + O=S(=O)(c1ccccc1)N(CC(F)(F)F)c1ccc(C(O)(C(F)(F)F)C(F)(F)F)cc1 [T0901317] (first compound 0.1 µM, partner dose 1.4 µM)",93.9,104,68.5,70.4,108,105
